Source: publication PMC9911399, “Two distinct binding modes provide the RNA-binding protein RbFox with extraordinary sequence specificity”
Where a chain is given by its changes, count along the chain named. The list shows a part of the results.

T1: RBFOX1 RRM RbFoxmut (Fox-RRM*) (Homo sapiens, UniProt Q9NWB1 109-208, R118D;E147R;N151S;E152T)
T1 sequence: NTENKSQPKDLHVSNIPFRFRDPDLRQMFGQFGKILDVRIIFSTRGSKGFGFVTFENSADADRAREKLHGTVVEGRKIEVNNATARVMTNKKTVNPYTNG

B1: GUCUGGG (DNA:RNA)
RNA: GGGAGACCGGAAUUCAGAUUGUCCGUCUGGGUUAAAUCCCGUCGUAGCCACCA
DNA 1: CAATCTGAATTCCGGTCTCCC
DNA 2: TGGTGGCTACGACGGGATT
B2: CUACACA (DNA:RNA)
RNA: B1 RNA with G25C, C27A, U28C, G29A, G30C, G31A
DNA 1: CAATCTGAATTCCGGTCTCCC
DNA 2: TGGTGGCTACGACGGGATT
B3: GAGCCGC (DNA:RNA)
RNA: B1 RNA with U26A, C27G, U28C, G29C, G31C
DNA 1: CAATCTGAATTCCGGTCTCCC
DNA 2: TGGTGGCTACGACGGGATT
B4: CAUCAUA (DNA:RNA)
RNA: GGGAGACCGGAAUUCAGAUUGUCCCAUCAUAUUAAAUCCCGUCGUAGCCACCA
DNA 1: CAATCTGAATTCCGGTCTCCC
DNA 2: TGGTGGCTACGACGGGATT
B5: CCCACUG (DNA:RNA)
RNA: B4 RNA with A26C, U27C, C28A, A29C, A31G
DNA 1: CAATCTGAATTCCGGTCTCCC
DNA 2: TGGTGGCTACGACGGGATT
B6: GUCAAGC (DNA:RNA)
RNA: B1 RNA with U28A, G29A, G31C
DNA 1: CAATCTGAATTCCGGTCTCCC
DNA 2: TGGTGGCTACGACGGGATT
B7: GCCUCUC (DNA:RNA)
RNA: B1 RNA with U26C, G29C, G30U, G31C
DNA 1: CAATCTGAATTCCGGTCTCCC
DNA 2: TGGTGGCTACGACGGGATT
B8: CGCUAGA (DNA:RNA)
RNA: B4 RNA with A26G, U27C, C28U, U30G
DNA 1: CAATCTGAATTCCGGTCTCCC
DNA 2: TGGTGGCTACGACGGGATT
B9: CAAAUUA (DNA:RNA)
RNA: B4 RNA with U27A, C28A, A29U
DNA 1: CAATCTGAATTCCGGTCTCCC
DNA 2: TGGTGGCTACGACGGGATT
B10: UUUUUAC (DNA:RNA)
RNA: B1 RNA with G25U, C27U, G29U, G30A, G31C
DNA 1: CAATCTGAATTCCGGTCTCCC
DNA 2: TGGTGGCTACGACGGGATT
B11: GUUACUA (DNA:RNA)
RNA: B4 RNA with C25G, A26U, C28A, A29C
DNA 1: CAATCTGAATTCCGGTCTCCC
DNA 2: TGGTGGCTACGACGGGATT
B12: AAGGCUC (DNA:RNA)
RNA: B4 RNA with C25A, U27G, C28G, A29C, A31C
DNA 1: CAATCTGAATTCCGGTCTCCC
DNA 2: TGGTGGCTACGACGGGATT
B13: UUGCGGG (DNA:RNA)
RNA: B1 RNA with G25U, C27G, U28C
DNA 1: CAATCTGAATTCCGGTCTCCC
DNA 2: TGGTGGCTACGACGGGATT
B14: ACGCAGA (DNA:RNA)
RNA: B4 RNA with C25A, A26C, U27G, U30G
DNA 1: CAATCTGAATTCCGGTCTCCC
DNA 2: TGGTGGCTACGACGGGATT
B15: CAAGUGG (DNA:RNA)
RNA: B4 RNA with U27A, C28G, A29U, U30G, A31G
DNA 1: CAATCTGAATTCCGGTCTCCC
DNA 2: TGGTGGCTACGACGGGATT
B16: UUAAUUU (DNA:RNA)
RNA: B4 RNA with C25U, A26U, U27A, C28A, A29U, A31U
DNA 1: CAATCTGAATTCCGGTCTCCC
DNA 2: TGGTGGCTACGACGGGATT
B17: GAUCUGU (DNA:RNA)
RNA: B4 RNA with C25G, A29U, U30G, A31U
DNA 1: CAATCTGAATTCCGGTCTCCC
DNA 2: TGGTGGCTACGACGGGATT
B18: GCGCAUU (DNA:RNA)
RNA: B4 RNA with C25G, A26C, U27G, A31U
DNA 1: CAATCTGAATTCCGGTCTCCC
DNA 2: TGGTGGCTACGACGGGATT
B19: GUAUUCU (DNA:RNA)
RNA: B1 RNA with C27A, G29U, G30C, G31U
DNA 1: CAATCTGAATTCCGGTCTCCC
DNA 2: TGGTGGCTACGACGGGATT
B20: GCAAGGA (DNA:RNA)
RNA: B1 RNA with U26C, C27A, U28A, G31A
DNA 1: CAATCTGAATTCCGGTCTCCC
DNA 2: TGGTGGCTACGACGGGATT
B21: UUGUGGG (DNA:RNA)
RNA: B1 RNA with G25U, C27G
DNA 1: CAATCTGAATTCCGGTCTCCC
DNA 2: TGGTGGCTACGACGGGATT
B22: CGGGCAG (DNA:RNA)
RNA: B4 RNA with A26G, U27G, C28G, A29C, U30A, A31G
DNA 1: CAATCTGAATTCCGGTCTCCC
DNA 2: TGGTGGCTACGACGGGATT
B23: CGGGAGC (DNA:RNA)
RNA: B4 RNA with A26G, U27G, C28G, U30G, A31C
DNA 1: CAATCTGAATTCCGGTCTCCC
DNA 2: TGGTGGCTACGACGGGATT
B24: GGUAAGC (DNA:RNA)
RNA: B4 RNA with C25G, A26G, C28A, U30G, A31C
DNA 1: CAATCTGAATTCCGGTCTCCC
DNA 2: TGGTGGCTACGACGGGATT
B25: CAGGCGA (DNA:RNA)
RNA: B4 RNA with U27G, C28G, A29C, U30G
DNA 1: CAATCTGAATTCCGGTCTCCC
DNA 2: TGGTGGCTACGACGGGATT
B26: GAAAUUC (DNA:RNA)
RNA: B4 RNA with C25G, U27A, C28A, A29U, A31C
DNA 1: CAATCTGAATTCCGGTCTCCC
DNA 2: TGGTGGCTACGACGGGATT
B27: UGAGAUC (DNA:RNA)
RNA: B4 RNA with C25U, A26G, U27A, C28G, A31C
DNA 1: CAATCTGAATTCCGGTCTCCC
DNA 2: TGGTGGCTACGACGGGATT
B28: CUCGGAG (DNA:RNA)
RNA: B1 RNA with G25C, U28G, G30A
DNA 1: CAATCTGAATTCCGGTCTCCC
DNA 2: TGGTGGCTACGACGGGATT
B29: GCGCCUU (DNA:RNA)
RNA: B4 RNA with C25G, A26C, U27G, A29C, A31U
DNA 1: CAATCTGAATTCCGGTCTCCC
DNA 2: TGGTGGCTACGACGGGATT
B30: UAAAUUC (DNA:RNA)
RNA: B4 RNA with C25U, U27A, C28A, A29U, A31C
DNA 1: CAATCTGAATTCCGGTCTCCC
DNA 2: TGGTGGCTACGACGGGATT
B31: CAUGUCG (DNA:RNA)
RNA: B4 RNA with C28G, A29U, U30C, A31G
DNA 1: CAATCTGAATTCCGGTCTCCC
DNA 2: TGGTGGCTACGACGGGATT

Target: T1, RBFOX1 RRM RbFoxmut (Fox-RRM*)
Test: EMSA; HiTS-Eq, 1 nM pool, 10 min; buffer printed only for the single-RNA assays: 10 mM Tris pH 7.5, 150 mM NaCl, 3.4 mM EDTA, 0.001% NP-40, 30 C
Details: tags: His6 N-terminal (pET28a); label: 5' 32P
Method in brief: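 Relative association constants, normalised to the cognate motif, were derived by comparing read counts of each RNA species with those of the control reaction. The RNA sequenced was the free fraction, separated by 8% native PAGE after a 10 min equilibration in 50 µL of 1 nM 5′-radiolabelled RNA (7 randomized nucleotides) with increasing concentrations of purified wild-type or mutant RbFox RRM.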

| Binder | binding signal |
| --- | --- |
| B1 | 0.0777 KA relative to UGCAUGU |
| B2 | 0.111 KA relative to UGCAUGU |
| B3 | 0.115 KA relative to UGCAUGU |
| B4 | 0.141 KA relative to UGCAUGU |
| B5 | 0.103 KA relative to UGCAUGU |
| B6 | 0.0714 KA relative to UGCAUGU |
| B7 | 0.0396 KA relative to UGCAUGU |
| B8 | 0.133 KA relative to UGCAUGU |
| B9 | 0.098 KA relative to UGCAUGU |
| B10 | 0.112 KA relative to UGCAUGU |
| B11 | 0.123 KA relative to UGCAUGU |
| B12 | 0.0498 KA relative to UGCAUGU |
| B13 | 0.103 KA relative to UGCAUGU |
| B14 | 0.106 KA relative to UGCAUGU |
| B15 | 0.0554 KA relative to UGCAUGU |
| B16 | 0.0824 KA relative to UGCAUGU |

| Binder | binding signal |
| --- | --- |
| B17 | 0.0827 KA relative to UGCAUGU |
| B18 | 0.1 KA relative to UGCAUGU |
| B19 | 0.0952 KA relative to UGCAUGU |
| B20 | 0.0471 KA relative to UGCAUGU |
| B21 | 0.11 KA relative to UGCAUGU |
| B22 | 0.109 KA relative to UGCAUGU |
| B23 | 0.11 KA relative to UGCAUGU |
| B24 | 0.0645 KA relative to UGCAUGU |
| B25 | 0.0541 KA relative to UGCAUGU |
| B26 | 0.0469 KA relative to UGCAUGU |
| B27 | 0.179 KA relative to UGCAUGU |
| B28 | 0.12 KA relative to UGCAUGU |
| B29 | 0.0675 KA relative to UGCAUGU |
| B30 | 0.0551 KA relative to UGCAUGU |
| B31 | 0.157 KA relative to UGCAUGU |
